Consider 58 compounds from PubChem BioAssay AID463173 (ICCB-Longwood Screening Facility, Harvard Medical School, 2010).

The whole screen tested about 52,000 compounds, of which about 4,300 (8.3%) were called active. No stated cut-off is given here; in the data, active means survival mostly below about 52% (no sharp cut-off); inactive means mostly above about 56%. The list shows a part of the results.

For the experiment, the system named is DeltatarO mutant. The experiment in a line: growth inhibition of S. aureus wild type versus tarO mutant, primary screen, teichoic acid synthesis inhibitors, RN4220, OD600 (AID 463173). The following applies: OD600, 18 h, stronger effect = lower value, screened at 18.75 µg/mL (by protocol).
Regarding `Nc1ccc(N2CCOCC2)c2nonc12`, the survival was inactive: 80%.

For `CCc1ccc(NC(=O)CSc2nc(C)c(C(=O)Nc3ccc(Cl)cc3)c(-c3ccc(OC)cc3)c2C#N)cc1`, the survival is inactive: 92%. The value for `Cc1ccc(C)c(NC(=O)CCCn2c(C)c3cnn(-c4ccccc4)c(=O)c3c2C)c1` was inactive: 72%; that for `Cc1ccccc1C(=O)NC1CCN(CC(=O)NC2CCCCC2)CC1` was inactive: 97%; that for `COc1ccc(OC)c(C2=NS(=O)(=O)N(C)C(C(=O)Nc3ccc(C(C)=O)cc3)=C2)c1` was inactive: 78%. The result for `Cc1ccc(C)c(NC(=O)C2CCN(c3ncnc4c3nc3n4CCCCC3)CC2)c1` reads inactive: 72%; that for `O=C(Cn1nnc(-c2cccnc2)n1)N(c1ccccc1)c1ccccc1`, inactive: 76%; that for `COc1cc(CN(C(=O)COc2ccc(Cl)cc2)c2ccccn2)cc(OC)c1OC`, inactive: 106%. Regarding `CC(C)(C)c1ccc(C(=O)NNc2ncnc3c2cnn3-c2ccc(Cl)cc2)cc1`, the survival is inactive: 107%. The result for `Cc1cccc(C)c1NC(=O)NCCCN1CCN(c2ccccc2)CC1` reads inactive: 134%; that for `Cc1cccc(NC(=O)c2cc(CN3CCOCC3)on2)c1C`, inactive: 86%; that for `Cc1cccc(S(=O)(=O)c2cn(C)c3cc(N4CCCCCC4)c(F)cc3c2=O)c1`, inactive: 61%.

Take `O=C(CSc1ccccc1)N1CCc2c([nH]c3ccccc23)C1c1ccc(Cl)cc1` (stereo not drawn): the survival is active: 52%.

In the case of `COc1ccc(NC(=O)Cn2nc3c(cc2=O)CCCC3)cc1Cl`, the survival is inactive: 101%. The value for `COc1cccc(C(=O)c2cn(CC(=O)Nc3cc(Cl)c(OC)cc3OC)c3nc(C)ccc3c2=O)c1` was inactive: 107%. The value for `CC1=C(c2ccc(F)cc2)S(=O)(=O)N=C1N1CCC(C(=O)NCCc2ccccc2)CC1` was inactive: 78%; that for `Cc1nc(N2CCCC2)ncc1C(=O)NCc1ccc(Cl)cc1` was inactive: 85%; that for `Cc1ccc(NC(=O)NCCOCCn2c(=O)oc3ccccc32)c(C)c1` was inactive: 70%. `CC(C)c1ccc(Cc2cn3cc(-c4cc5ccccc5oc4=O)nc3s2)cc1`: the survival was inactive: 56%. The value for `COc1cccc(-n2c(SCC(=O)Nc3cccc(C)c3)nc3c([nH]c4ccccc43)c2=O)c1` was inactive: 85%. In the case of `O=C(NCc1ccc(Cl)cc1)c1cc2ccc3cccnc3c2[nH]1`, the survival was inactive: 58%. Regarding `CCOC(=O)C1CCCN(C(=O)Cn2c(=O)cc(C)c3c(C)nn(C)c32)C1` (stereo not drawn), the survival is inactive: 73%.

As to `COc1ccc(S(=O)(=O)N2CCC(C(=O)NC(C)c3ccccc3)CC2)cc1` (stereo not drawn), the survival is inactive: 79%. The value for `O=c1sc2ccccc2c2nc[nH]c12` was inactive: 91%. As for `Cc1ccc(CN2C(=O)C(O)(CC(=O)c3ccc(C)cc3)c3ccccc32)cc1` (stereo not drawn), the survival is inactive: 65%. The result for `CCc1ccccc1NC(=O)CC(C)S(=O)(=O)c1ccc2c(c1)NC(=O)CO2` (stereo not drawn) reads inactive: 80%; that for `CCNC(=O)C1CCN(c2nc3ccccc3nc2C(F)(F)F)CC1`, inactive: 144%; that for `O=C(CSc1nc2c([nH]c3ccccc32)c(=O)n1-c1ccccc1)NCc1ccc(F)cc1`, inactive: 66%. Consider `CCc1ccc2occ(CC(=O)Nc3nnc(C)s3)c2c1`, for which the survival is inactive: 85%. The value for `O=C(CN1C(=O)C2(SCC(=O)N2c2ccccc2)c2ccccc21)Nc1ccccc1C(F)(F)F` (stereo not drawn) was inactive: 125%; that for `COc1ccccc1-c1cc(-c2ccc(O)cc2)nc(N)c1C#N` was active: 12%. The value for `CC(=O)c1nn(-c2ccc(OC(F)(F)F)cc2)nc1Nc1ccc(Cl)cc1` was inactive: 84%. The value for `CCOc1ccc(NC(=O)Cn2cc(S(=O)(=O)c3ccc(C)cc3)c(=O)c3cc(F)ccc32)cc1` was inactive: 74%; that for `CCOc1ccc(-c2nnc(SCC(=O)NCc3ccc(Cl)cc3)o2)cc1` was inactive: 83%; that for `COc1ccc(CCNc2oc(-c3ccc(C)cc3)nc2C#N)cc1OC` was inactive: 88%. With `C/C(=N\OC(=O)c1nn(C)cc1Br)c1ccc(Cl)cc1Cl`, the survival was inactive: 89%.

On to `COc1ccc2[nH]cc(CCN=C(NC(=O)c3cccc(Cl)c3)Nc3nc(C)cc(C)n3)c2c1`, for which the survival is inactive: 56%.

Take `S=C(NCc1ccc2c(c1)OCO2)Nc1ccccc1`: the survival is inactive: 97%. Take `C#CCN1CCOCC1`: the survival is inactive: 99%. With `Cc1oc(-c2ccccc2F)nc1CS(=O)(=O)CC(=O)N1CCN(c2ccc(Cl)cc2)CC1`, the survival is active: 43%. As to `Cc1ccc(C)c(S(=O)(=O)c2cn(C)c3cc(F)c(F)cc3c2=O)c1`, the survival was inactive: 92%. For the compound `CCc1cccc(NC(=O)c2c(N3CCCC3=O)c3cc(C)ccc3n2C)c1`, the survival was inactive: 74%. Regarding `CC(=O)Nc1ccccc1-c1nc2ccccc2n(CC(=O)Nc2ccc(C)c(Cl)c2)c1=O`, the survival is inactive: 101%. On to `COc1ccc(CCn2c(=O)c3ccccc3n(CC(=O)Nc3cccc(C)c3)c2=O)cc1OC`, for which the survival was inactive: 83%. Regarding `Cc1ccc(S(=O)Cc2ccc(C(=O)NC3CCCCCC3)o2)cc1` (stereo not drawn), the survival was inactive: 121%.

`CCn1c(SC)nnc1C1CCCN(C(=O)c2ccccc2-c2ccccc2)C1` (stereo not drawn): the survival was inactive: 75%. The result for `Cc1ccc(S(=O)(=O)Nc2ccc3[nH]c(=O)sc3c2)cc1C` reads inactive: 77%; that for `CCN(CC)Cc1cc(C(=O)O)oc1C(C)(C)C`, inactive: 106%; that for `O=C(c1ccc2c(c1)N(Cc1ccc(Cl)cc1)C(=O)c1ccccc1S2(=O)=O)N1CCC(Cc2ccccc2)CC1`, inactive: 69%. Regarding `O=C(c1ccccc1)C(C(=O)N1CCCCC1)n1ccccc1=O` (stereo not drawn), the survival was inactive: 74%.

As for `O=C(c1ccc2c(c1)N(Cc1ccc(F)cc1)C(=O)c1ccccc1S2(=O)=O)N1CCCCCC1`, the survival was inactive: 71%.

Take `CCOc1ccc(NC(=O)CSC2=Nc3ccccc3C3=NC(CC(=O)NCc4ccccc4OC)C(=O)N23)cc1` (stereo not drawn): the survival is inactive: 116%. The result for `Cc1ccc(N2CC(NC(=O)c3ccco3)CC2=O)cc1` (stereo not drawn) reads inactive: 85%. Consider `Cc1ccc(Nc2nc(C(=O)N3CCC(C)CC3)cs2)cc1`, for which the survival was inactive: 91%. The value for `COc1cccc(-n2c(=O)c3cc(OC)c(OC)cc3n(CC(=O)Nc3ccccc3)c2=O)c1` was inactive: 122%; that for `C=CCN1C(=O)C2C(C(=O)NC3CCCCC3C)C3(C)C=CC2(O3)C1C(=O)NC(C)(C)C` (stereo not drawn) was inactive: 65%. The value for `Cc1ccccc1NS(=O)(=O)c1ccc2c(c1)NC(=O)CCS2` was inactive: 64%; that for `CCn1c(SCC(=O)Nc2ccccc2)nc2c([nH]c3ccccc32)c1=O` was inactive: 76%.
